Assay results: PubChem BioAssay AID485344 (National Center for Advancing Translational Sciences (NCATS), 2010)
Out of some 340,000 compounds screened, about 6,900 (2%) were called active. Cut-off read from the data, not from the text of the source: active = inhibition above about 30%; inactive = below that, where a call was filed. The list shows a part of the results, in another mix than the full data. The source gives no active or inactive call for entries shown without one.

Molecular target: D(2) dopamine receptor (Homo sapiens) (UniProt P14416)
Assay: HTS Assay for Allosteric Antagonists of the Human D2 Dopamine Receptor: Primary Screen for Antagonists; note: 0% is about no effect
Conditions: HEK293 TREx D2 cells, calcium flux, dopamine EC80; at 10 µM; stronger effect = higher value
Outline: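 HEK293 T-REx D2 cells, tet-induced, calcium dye no-wash. Cpd pintool add, 180 s kinetic, then EC80 DA, 180 s kinetic. Ca flux read.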

Sequence of UniProt P14416 (P14416 whole entry, looked up): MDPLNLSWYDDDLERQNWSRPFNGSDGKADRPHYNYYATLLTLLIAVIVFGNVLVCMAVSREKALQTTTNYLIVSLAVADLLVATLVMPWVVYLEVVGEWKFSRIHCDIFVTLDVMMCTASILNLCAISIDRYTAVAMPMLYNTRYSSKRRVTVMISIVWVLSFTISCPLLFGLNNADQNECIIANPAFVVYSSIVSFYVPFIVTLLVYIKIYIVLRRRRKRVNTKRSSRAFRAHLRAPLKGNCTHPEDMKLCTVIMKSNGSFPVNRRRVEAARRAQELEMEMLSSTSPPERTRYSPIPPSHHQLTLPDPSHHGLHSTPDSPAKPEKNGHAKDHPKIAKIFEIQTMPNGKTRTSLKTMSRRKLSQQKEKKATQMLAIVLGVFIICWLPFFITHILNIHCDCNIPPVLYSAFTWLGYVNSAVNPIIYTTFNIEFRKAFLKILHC

Structure (SMILES)	inhibition
Cc1ccc(CNC(=O)c2ccc3c(c2)N(Cc2cccc(Cl)c2)C(=O)CS3)cc1	10.8%
Cc1cc(O)c(C(=O)c2cnc3c(c2)COc2ccccc2-3)cc1Cl	0.868%
Cc1ccc(Cl)cc1NC(=O)Cn1c(=O)n(CCC(=O)N2CCc3ccccc3C2)c(=O)c2ccccc21	0.0285%
CCOc1ccc(NC(=O)Cn2cc(C(=O)c3ccc(C)c(C)c3)c(=O)c3cc(F)ccc32)cc1	-1.71%
COc1cccc(CNC(=O)Cn2c(=O)oc3cc(S(=O)(=O)N4CCC(C)CC4)ccc32)c1	6.62%
Cc1ccc(-n2nc3c(=O)n(C(C)C(=O)O)nc(C)c3c2C)cc1 (stereo not given)	3.48%
COc1ccc(Cn2c(C(=O)O)c(CNCCc3ccccc3Cl)c3ccc(C)cc32)cc1	-2.92%
CCC(=O)N1CCc2cc(S(=O)(=O)CCC(=O)NCc3ccc(F)cc3)ccc21	14.5%
Cc1ccc(NC(=O)C2CCCN(c3nnc(C)c4c(C)n(-c5ccccc5)nc34)C2)cc1Cl (stereo not given)	-16.6%
CCOC(=O)c1cc2c(=O)n3ccccc3nc2n(Cc2ccco2)c1=NC(=O)c1ccccc1OC	3.27%
Cc1c2cnn(CC(=O)Nc3ccc(F)cc3F)c(=O)c2c(C)n1Cc1cccc(Cl)c1	-3.22%
O=C(Cn1c(=O)n(-c2ccc(F)cc2)c(=O)c2sccc21)Nc1cccc(C(F)(F)F)c1	12.9%
Cc1cc(C)cc(OCC(=O)Nc2cccc(-c3nc4ccccc4[nH]3)c2)c1	-2.39%
COc1cc(C(=O)NCCC2=CCCCC2)ccc1OCc1c(C)noc1C	active: 31.6%
COc1ccc(-n2nc3c(c2NC(=O)C(=O)N2CCN(C)CC2)CSC3)cc1	23.4%
COc1ccc(CCC(C)N2CCc3ccccc3C2)cc1 (stereo not given)	active: 55%
O=C(Nc1ccccc1C(F)(F)F)c1noc2c1CCCCC2	-6.88%
CC(=O)c1ccc(NC(=O)C2CCCN(S(=O)(=O)c3cn(C)cn3)C2)cc1 (stereo not given)	16.7%
CCc1cccc(C)c1Nc1c(-c2ccc(N3CCOCC3)cc2)nc2ncccn12	2.85%
CCc1ccc(N2C(=O)CS(=O)(=O)C23C(=O)N(Cc2ccccc2)c2ccccc23)cc1 (stereo not given)	4.55%
COc1cc(-c2noc(-c3nnn(-c4ccc(Cl)cc4)c3C)n2)cc(OC)c1OC	12.8%
Cc1ccc(-n2nc(CO)c(C(=O)NCCc3ccccc3)n2)cc1C	-10.7%
Cc1ccc(OCCCCN2CCCCC2)c(Br)c1	active: 73.5%
CCOCCCNCc1ccc(OCCC(C)C)c(OC)c1	active: 35.3%

Structure (SMILES)	inhibition
Cc1c(CNC(C)c2ccccc2)c(C(=O)O)c(C)n1Cc1c(F)cccc1Cl (stereo not given)	1.34%
CCOC(=O)C1CCCN(C(=O)c2cc3c(=O)n(C)c4ccccc4c3s2)C1 (stereo not given)	-19.9%
COc1ccc(CCC(=O)NNC(=O)Nc2cc(Cl)ccc2C)cc1	active: 33%
O=S(=O)(NCc1ccccc1)c1ccc2[nH]c3c(c2c1)CCCCC3	5.27%
Cc1cc(NS(=O)(=O)c2ccc(NC(=O)COc3c(C)cc(Br)cc3C)cc2)no1	-19.4%
COc1cccc(NS(=O)(=O)c2ccc3[nH]cc(C(=O)NC4CCCCC4)c(=O)c3c2)c1	12.1%
Cc1ccc(SCC(=O)Nc2cccc(-c3nc4cc(Cl)ccc4o3)c2C)cc1	-27.2%
CCn1cc2nc(SCc3cccc(OC)c3)n(Cc3ccc(Cl)cc3)c(=O)c2n1	17%
COc1ccc2c(c1)C(C)CC(C)(C)N2C(=O)Nc1ccccc1 (stereo not given)	active: 54%
CCCOc1ccc(CNC(=O)C2CCN(c3nc4ccccc4nc3C(F)(F)F)CC2)cc1	7.18%
COC(=O)c1cc2sccc2n1Cc1ccccc1	13.8%
O=C(CCC1N=C2c3ccccc3N=C(SCc3cccc(F)c3)N2C1=O)NC1CCCCC1 (stereo not given)	26.3%
CC1=C(C(=O)Nc2ccccc2Cl)C(c2cccs2)n2ncnc2N1 (stereo not given)	-7.39%
COc1ccccc1CCNC(=O)c1cc2ccccn2n1	2.48%
COCCCNC(=O)c1c(NC(=O)c2cc(=O)c3cc(C)c(C)cc3o2)sc2c1CCCC2	15.4%
CCCN1C(=O)CN(C2CCCCCC2)C(=O)C1c1ccc(OCC)c(OC)c1 (stereo not given)	-7.15%
Cc1cc(=O)n2nc(N3CCCC(C(=O)NCc4ccco4)C3)sc2n1 (stereo not given)	active: 36.3%
CCCCNc1cc(NC2CCCCC2)c2c3c(onc13)-c1ccccc1C2=O	7.22%
O=C(NC1CC(=O)N(c2cccc(F)c2)C1)C1CCCCC1 (stereo not given)	-16.5%
COc1ccccc1CCNC(=O)Cc1c(C)c2c(cc(C)c3c(C)coc32)oc1=O	6.87%
COc1ccc(N2C(=O)C(CC(=O)Nc3ccc(F)cc3)N(CCC3=CCCCC3)C2=O)cc1 (stereo not given)	-5.7%
CN(C(=O)Nc1cn(C)c(=O)c2ccccc12)c1ccccc1	-3.49%
COc1ccc(Cl)cc1NC(=O)CN1c2ccccc2S(=O)(=O)c2ccccc21	3.03%
O=C(CSC1=Nc2ccccc2N=C(c2ccc(F)cc2)C1)Nc1cc(F)ccc1F	-0.899%

Structure (SMILES)	inhibition
COc1ccc(OC)c(NC(=O)C2CCCN(S(=O)(=O)c3c(C)noc3C)C2)c1 (stereo not given)	active: 43.7%
CCC(Cn1nnc2ccccc2c1=O)NC(=O)Nc1cccc(Cl)c1 (stereo not given)	7.62%
COc1ccc(-c2[nH]ncc2C(=O)NCc2ccc(F)cc2)cc1	12.1%
Cc1ccc(C(=O)N2CCN(c3ccccc3F)CC2)cc1NC(=O)c1nsc2ccccc12	-0.492%
O=[N+]([O-])c1cccc(CN2CCN(c3cccc4[nH]ccc34)CC2)c1	active: 42.1%
CCc1cccc(NC(=O)Cn2c(=O)n(CC3CCC(C(=O)NCCc4ccccc4)CC3)c(=O)c3ccccc32)c1 (stereo not given)	-10.1%
O=C(NCc1ccc(F)cc1)C1CCN(C(=O)c2cnn(-c3ccccc3)c2-n2cccc2)CC1	5%
O=C(Nc1ccccc1C(=O)O)c1cccc(S(=O)(=O)N2CCCC2)c1	-17.4%
COCCNC(=O)CN1C(=O)COc2ccc(Cl)cc21	active: 34.7%
Nc1ccc(C#Cc2ccc3c(=O)c4ccccc4oc3c2)cc1	active: 41.3%
CCOc1cc(C(=O)NCc2ccc3c(c2)CCN3C(=O)CC)cc(OCC)c1OCC	8.73%
CCCCN(CC)CCCNC(=O)c1cn(C)c2ccc(S(=O)(=O)N(C)C3CCCCC3)cc2c1=O	-4.14%
COc1cccc(CNC(=O)CCC(=O)N2CC3CCCN3c3ccccc32)c1 (stereo not given)	19.4%
Cc1ccccc1NC(=O)CN(C)S(=O)(=O)c1cccc2nsnc12	2.24%
Clc1ccc(-c2c[n+](Cc3ccc(Cl)c(Cl)c3)c3n2CCC3)cc1	active: 40.9%
Cc1cccc(NC(=O)Cn2nc(N3CCN(c4ccccc4)CC3)ccc2=O)c1C	-0.659%
CCOC(=O)c1cnn(-c2cccc(F)c2)c1C1CCNCC1	28.3%
CCOc1ccc(CCNC(=O)Cn2nc(C)c3c(C)n(-c4ccccc4)nc3c2=O)cc1OCC	-1.62%
Cc1ccc(S(=O)(=O)Nc2cc(Cl)c3oc4c(c3c2)C(=O)CC(C)(C)C4)cc1	19.2%
COc1ccccc1CNc1nc(-c2ccco2)nn1S(=O)(=O)c1ccc(Cl)cc1	-7.11%
COc1cc(C(=O)Nc2ccc(-c3cc(C(F)(F)F)nn3-c3ccccc3)cc2)cc(OC)c1OC	-9.73%
COc1cc(OC)c(NC(=O)Cn2c(=O)cc(C(F)(F)F)c3c(C)nn(C)c32)cc1Cl	-3.85%
Cc1ccccc1NC(=O)CSc1nc2ccc(NC(=O)COc3ccccc3F)cc2s1	1.42%
CCc1ccccc1NC(=O)c1cnn2c(C(F)(F)F)cc(-c3ccc(OC)c(OC)c3)nc12	6.28%

Structure (SMILES)	inhibition
Cc1ccc(CNC(=O)c2cc(C3CC3)nc3c2c(C)nn3-c2cccc(Cl)c2C)cc1	-0.506%
O=C(COC(=O)CCN1C(=O)C2CC=CCC2C1=O)NCCc1ccc(F)cc1 (stereo not given)	active: 37.1%
Cc1ccc(N2C(=O)c3oc4cc(C)c(C)cc4c(=O)c3C2c2cccc(O)c2)nc1 (stereo not given)	-5.76%
Cc1ccc(NC(=O)c2nc(S(=O)(=O)Cc3cccc(C)c3)ncc2Cl)cc1	-5.47%
CCN(C(=O)Cn1c(SCC(=O)NCc2ccccc2)nc2ccccc21)c1cccc(C)c1	-20.6%
O=C(NCc1ccccc1Cl)c1cnc(N2CCCCC2)c2ccccc12	-12%
Cc1cccn2c(Nc3ccc4c(c3)OCCO4)c(-c3ccc(Br)o3)nc12	4.76%
O=C(Nc1cccc(Cl)c1Cl)c1cc2nc(-c3ccc4c(c3)OCO4)cc(C(F)(F)F)n2n1	-15.6%
COc1ccc(-c2cc3ccc(O)c(CN4CCN(CCO)CC4)c3oc2=O)cc1OC	7.21%
Cc1ccc(-n2nc(C(=O)NCCc3cccc(C)c3)c3c4ccccc4n(C)c3c2=O)cc1	-1.2%
COc1ccc(OC)c(CNC(=O)c2cc(-c3ccc(Cl)s3)nc3ccccc23)c1	5.42%
COc1cc(-c2nc3n(n2)C(c2ccc(F)cc2)C(C(N)=O)=C(C)N3)cc(OC)c1OC (stereo not given)	-8.97%
COc1ccccc1NC(=O)c1oc2ccccc2c1NC(=O)c1ccc(S(=O)(=O)N(C)C)cc1	-11.3%
CCOC(=O)c1cc(S(=O)(=O)Nc2ccc(OC(F)(F)F)cc2)[nH]n1	3.3%
CCC1CN(C(=O)N2CCC(C(=O)NCc3cc(OC)ccc3OC)CC2)c2ccccc2O1 (stereo not given)	-10.2%
Cn1c(C(=O)NCc2ccc(F)cc2)cc2cc(S(=O)(=O)N3CCCCC3)ccc21	-13.6%
COc1ccc(NC(=O)CSc2nc(-c3ccc(OC)cc3)cc(=O)[nH]2)cc1	-4.91%
COc1cc(OC)c(NC(=O)c2cc3c(s2)-c2ccc(Cl)cc2SC3)cc1Cl	4.6%
Cc1cccc(N2CCN(C(=O)C3CCN(Cc4nc(-c5ccc(Cl)cc5)oc4C)CC3)CC2)c1C	8.13%
Cc1cc(NC(=O)C2CCC(CNS(=O)(=O)c3ccc(Br)s3)CC2)ccc1Br (stereo not given)	12.1%
COc1ccc(C)cc1S(=O)(=O)Nc1cccc(-c2ccc(N3CCC(C)CC3)nn2)c1	-11.5%
CCc1nn2c(-c3ccco3)ccnc2c1-c1ccccc1	13.8%
Nc1c(C(=O)NCc2ccc3c(c2)OCO3)nnn1CC(=O)Nc1ccc(Br)cc1	-6.17%
